Data taken from the supplement of paper PMC3334620.
The full ranking holds about 33,000 sequences; the median of “E-score (-0.5 to 0.5)” is about -0.054, and the highest 2% start at about 0.39. This is one part of the list.

Biological target: Ylr278c (UniProt Q05854)
Experiment: PBM E-score (8-mer binding enrichment) (E-score (-0.5 to 0.5)); higher = stronger / more preferred TF binding; most listed sequences are background and not binding sites
Settings: protein concentration: 200 nM; construct: GST-DNA-binding domain
How it was run: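 Full-length yeast transcription factors or their DNA-binding domains, GST-tagged and expressed with PURExpress, were applied at about 100-200 nM to universal all-10-mer Agilent arrays. These arrays had been made double-stranded by primer extension on fresh or once-stripped slides. Detection used fluorescent anti-GST, normalisation used masliner, and E-scores for ungapped eight-base words pooled with reverse complements came from the Universal PBM Analysis Suite.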

Sequence | PBM E-score
CAACCATA | -0.136
CGCGTGCA | -0.0498
CGAATCAA | 0.00118
GCGTAAGC | -0.00035
CCGTGTAG | 0.0296
CAGCTATA | -0.0641
ATGCATAG | -0.158
CGCTAAGA | 0.0342
CACGGGTC | 0.016
CGCCCCTC | 0.0739
GGATTCCA | 0.207
GACGGTAC | 0.018
ATCACATA | -0.172
CACCATGA | -0.00895
CAGATCTA | -0.168
GATGAGCC | -0.0805
GGCTTCCA | 0.0292
ATGATAAC | -0.0976
ATGCAACG | -0.0447
AGGTATGA | -0.111
ACAACGTC | 0.141
ATGACCGC | 0.131
CTTTCCGA | 0.354
CGCGAACA | 0.0712
AATTGCTC | -0.0378

Sequence | PBM E-score
ACTGATCA | -0.0604
CCGCTTTA | 0.195
GCCCGAAA | 0.236
ATAGATTA | 0.00461
CATCGCAG | -0.0787
GCCGTCCA | 0.0661
AGACGCTG | -0.109
GGGTGTTA | -0.0335
GACGGAGC | 0.378
ACAATCAA | -0.0226
CCCTAGCG | -0.352
AACGACAA | 0.0288
AAATGATG | 0.0314
CACATTCG | 0.0166
AGTCCACG | -0.0171
ATTACCGA | 0.224
ATCGGTGA | 0.114
AGATTATC | -0.0114
AATGCTCA | -0.162
AGCGAAGG | -0.0577
CCGTTATC | 0.157
CTCCCTAA | -0.143
CAGCTGTA | -0.0449
CACCGGTA | 0.297
TATTCGAA | -0.174

Sequence | PBM E-score
AATGTACT | -0.00461
CTAGTCCC | -0.204
TGACGGCA | 0.118
CAACAGAC | -0.0435
CAGAAAAC | -0.175
GTCAACAC | -0.0756
ACGGCTCG | 0.128
CCATCGTC | 0.0342
CACTGGTA | -0.203
GGTACACC | -0.0332
AATAGAAT | -0.191
ATCACTAG | -0.204
GTACGCAC | -0.171
GAGTCCAA | -0.0736
CCAGAACG | -0.14
ACCGGTCA | 0.231
ATCGCCCG | 0.267
AGCAGGCT | -0.169
CTGACTTA | -0.054
ACTTCTCT | -0.271
AATTGCCC | 0.118
CTTACATC | -0.0831
GAGACGGA | 0.325
TACCGTGA | -0.011
ACTGTCAA | -0.184

Sequence | PBM E-score
ATAGAGCG | -0.00142
CTTGAGTC | -0.105
ATGGTGCA | -0.126
ATTCGGAC | 0.392
GGCACCAA | 0.17
GATGTAGA | -0.192
AACGCAAC | -0.0186
ACTAATAT | -0.0231
ATCGGTCG | 0.175
GGTCTACA | -0.135
AAAGCTCG | -0.0573
GTAAATGA | 0.024
AATTACAT | 0.0332
CGGGACAA | 0.196
ACATGAAA | -0.224
CATATGGC | -0.0951
CAGATGGC | -0.0558
GGTCACTA | -0.038
GTTGGTGA | -0.0775
ATTTGAGG | -0.151
CAGGGAAC | -0.262
AAGAACCA | -0.108
AATACGCT | 0.0256
AATTCAGT | -0.178
AAATGTGC | 0.214

Sequence | PBM E-score
TGCGACCA | 0.0635
GGCTCCGA | 0.393
CGTGCAGA | -0.22
CCGTGTGA | 0.126
TCTCGGAA | 0.414
AATTAAGG | -0.158
CATTCGAG | -0.112
AGCCAAAG | -0.187
GACTCATC | -0.227
CAGGTGCC | -0.0337
ACGCACGG | 0.126
ATTCGGTA | 0.0941
GTCGATAA | -0.152
AGATGGAC | 0.0253
AAAGAAGT | -0.0518
ACTGAGCA | -0.249
CAACTTGA | 0.0106
ATGGGGGA | -0.158
AACGAATT | -0.0276
GAAGATTA | 0.0826
TCATCACA | -0.258
ACACAGCT | -0.174
TAGGTGCA | -0.176
CCAACAAA | -0.142
AAACCTAA | 0.0256

Sequence | PBM E-score
GAAGAACA | 0.137
ACAGGAAG | -0.0603
GCTAACCC | 0.00081
CCCAGCAA | -0.0346
CGAGAGGA | -0.15
ATAGCTAG | -0.281
GTCAAGGA | -0.166
CATTGCAG | -0.292
CGACGGTA | 0.169
AGTTGACC | 0.183
CCAGAGAC | -0.238
GATTTCTA | 0.238
ACGAATGG | -0.027
AATGCGCT | -0.0327
CAACGCTA | -0.0359
CTTTGGGC | 0.124
CGCAACCA | 0.113
GACCGTGA | 0.085
AAAGCAAA | -0.00658
CACCCATC | -0.0814
CTGTGGCC | -0.0408
AGCTGTTC | -0.116
AAACAGGT | -0.193
CAATTAAG | 0.0362
TCAACTCA | -0.0706

Sequence | PBM E-score
GAGCCAAA | -0.0664
AATCAGGT | -0.0317
AAGTTCAA | 0.118
AATCTCCC | 0.0563
AGCTACCA | -0.127
CTATAAAG | 0.0306
GATTTGCC | 0.117
CCCTTTGA | -0.21
GCCGCACA | 0.0283
ATATAACC | -0.0128
AAACCTAG | -0.173
GCAGCCCA | -0.0644
AGTTTGGA | -0.153
AAAATATA | 0.0225
ATGCAAGG | -0.145
GCCAGGAC | -0.127
TAGGGACA | -0.0143
GGAAGAAA | -0.00281
AAGAAGGG | -0.269
AGCGTGCG | 0.186
CCATATAA | -0.139
AATACGAA | -0.0523
CATTTAGC | -0.163
GTAGAAGA | -0.177
CCGCCCTA | 0.0619

Sequence | PBM E-score
GAAGAGAC | 0.0662
AACAGCTA | -0.129
CACAACCC | -0.038
CACATAAG | -0.256
GCAAAGGC | -0.123
CACCGGGA | 0.352
AGTATACT | -0.327
ATTAGAAA | -0.0531
ACGCCGAT | 0.281
AGCCAACT | -0.179
GAGCGTAA | 0.0612
GGAAGACC | 0.169
AACTGATT | -0.223
AGCGTAAC | -0.133
GACGAGTC | -0.161
CCGTTACG | 0.237
AAAGTTGG | -0.172
TAATGATA | 0.00563
GGTGCCAC | -0.109
AAAATGAT | 0.185
CTTTCCCA | -0.083
ACGCTCTA | -0.183
CGCTGCGA | -0.0136
AGCGCAAG | -0.142
CTCCGTCA | 0.421

Sequence | PBM E-score
AGTGGGTC | -0.0272
AATCTGCT | -0.168
AGGTTGCC | 0.0629
AGGCACCT | -0.0258
CCTGGCCC | -0.0682
CTCAATCA | -0.0469
CTAAGTAA | -0.0989
ACGTAACG | -0.0482
CGCGATGC | 0.0326
CTTCTCCA | -0.168
CATATCGG | 0.154
AGTTCCCA | 0.00271
ACAGGTGA | -0.108
AGGGTCCG | 0.325
CAGGACGC | -0.305
TGTGTCAA | -0.227
CAAATATA | -0.141
CAGGGGGC | -0.125
AGCGGTAG | -0.168
GCCCGCGA | 0.147
GTCCTGGA | -0.221
AAAATCGG | 0.273
ACCTGTAT | -0.295
CCGCGTTC | 0.271
GACGATGA | 0.0474

Sequence | PBM E-score
GAAAAATC | 0.0882
GACGTTTA | -0.29
CTGTCTAC | -0.252
ACTGGCCG | 0.154
AGGATGTA | -0.128
ATAGAAGC | -0.141
CGTAGAAC | -0.0134
AACTCACC | -0.0252
ACAATCTC | 0.0492
GTTTGAGA | -0.321
CAGTACCG | 0.202
TAAGCAAA | -0.133
GCAACGGA | 0.328
GTAAGACA | -0.158
TATTTAAA | 0.00718
AATTGCAC | -0.054
AGTTCCAA | -0.0869
GGGACCGA | 0.164
GGTATTAC | 0.171
CGTACTGC | -0.115
AATACCCA | -0.04
AAACAAGG | -0.00275
CATTGGGG | -0.165
CAGGGTTC | -0.158
ATCCATTC | -0.0913

Sequence | PBM E-score
AAAGCGAA | 0.128
AGTCTAGG | -0.208
AGGGGCAA | 0.0321
AAGTGATG | -0.152
AGTGTTGA | -0.0127
GCACCGAA | 0.166
AATTCGAG | -0.187
CCATTTAA | -0.13
ATCCTTGG | -0.0145
AGAAAAAA | -0.179
CACTCAGC | -0.0426
ACTTCTCG | 0.0904
AACTCGTC | -0.233
GGATTCGA | 0.025
AAGTTGAG | -0.0256
AAGACTGT | -0.375
CAGGTCGA | -0.197
ACGAAACC | 0.0905
GACGTGCC | -0.0295
TCCCTGCA | -0.00909
AGGGGGTC | -0.267
ATGGCCTA | -0.118
ATTAACGG | 0.148
GTTGAGAA | -0.117
GTACTGCA | -0.0765

Sequence | PBM E-score
ACTGCTCT | -0.15
GTGTCAGA | -0.0878
GACCAATC | -0.0699
CCCGGGAG | 0.294
CTACATCC | 0.00841
CATAAGTC | 0.00355
CAGTACAC | -0.137
AATAGTGC | 0.116
GGACGTCC | 0.213
CCCCAACC | -0.0972
AGAAAGAC | -0.0833
GAAATGCC | 0.143
GATTTCGA | 0.0701
CAGAACAG | -0.00784
AGCGGTGA | 0.00074
ACTAAGAG | -0.0302
AGTAATAA | -0.217
CGCATGCA | 0.0625
AGGCCGTA | 0.0868
GAGCAGCC | -0.223
GTATGTCA | -0.122
CCTGCTAA | -0.232
GCGCACCA | 0.0803
AGCCGTAA | -0.0472
TCTAAACA | -0.204

Sequence | PBM E-score
ACTCTTCC | 0.0394
AACACTGG | -0.125
CGATGGAA | 0.078
ACAGCCAG | -0.249
ATTCATCA | -0.06
GAAGACCA | 0.0955
ATAAGAGC | -0.0736
GAGTAGAA | -0.015
ACGCGGCC | 0.0568
CGGAAGGC | 0.301
AGGTAGTA | -0.112
CAGCCCGA | 0.021
ACGCAGCG | -0.141
AGGAACAC | 0.0656
ATGCGACG | 0.0377
AGTCATTC | -0.108
CTTACGAA | -0.214
GAGGGCAA | 0.074
TACTGGCA | -0.212
CACCTAGA | -0.256
TACTCGGA | 0.342
AACCTACA | -0.118
AAGAGGAT | -0.197
ACAAGATC | -0.13
CTATGCAG | -0.166

Sequence | PBM E-score
AAAATTGT | 0.0605
GCACGGGA | 0.102
GACCTTTA | -0.0327
CTGCCCGC | 0.225
CGGTTATA | 0.0459
GAAGCGTA | 0.109
ACTGAGGC | 0.105
AATCTATC | -0.0207
AACTGGAT | 0.036
AATACTCC | 0.251
CAGTGCCC | -0.0369
CGTCGGGC | 0.2
GAACTAAC | 0.0163
CTTATCCC | 0.049
CCTTTCCA | -0.0997
GCCTCTAA | -0.263
CGATAACC | 0.211
GGTCAGAC | -0.267
ATCCATCA | -0.135
